# About 800 (1.6%) of roughly 50,000 compounds showed an effect of 50% or more. The list shows a part of the results.
# Biological target: Bcl-2-like protein 10 (Homo sapiens) (UniProt Q9HD36)
# Experiment: TR3 peptide-Bcl-B binding displacers, biochemical primary FP assay, phenotype converters (AID 1240);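 further: 0% = Bcl-B with tracer peptide and DMSO and 100% = tracer peptide lacking Bcl-B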
# Conditions: GST-Bcl-B / FITC-TR3 peptide fluorescence polarization; stronger effect = higher value; compound at 3.75 mg/L
# UniProt Q9HD36, sequence (Q9HD36 whole entry, looked up): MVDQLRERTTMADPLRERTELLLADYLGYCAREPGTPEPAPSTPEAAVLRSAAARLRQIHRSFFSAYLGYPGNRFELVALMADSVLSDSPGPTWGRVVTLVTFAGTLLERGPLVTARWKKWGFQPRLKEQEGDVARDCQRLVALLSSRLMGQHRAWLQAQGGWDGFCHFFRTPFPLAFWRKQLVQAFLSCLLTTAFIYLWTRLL
row,Structure (SMILES),displacement [%]
1,CCc1ccccc1N(CC(=O)N1CCOCC1)S(C)(=O)=O,1.1
2,Cc1cccc(/C=N/N2CCN(Cc3ccc(Cl)cc3)CC2)c1,9.1
3,C=C(C)Cn1c(SCC(=O)c2ccc(OC)cc2)nnc1-c1ccc(Br)cc1,-7.2
4,O=C(O)c1ccc2c3c(cccc13)C(=O)N(c1cccc3ccccc13)C2=O,-5.5
5,O=C1c2ccccc2-c2onc3ccc(N4CCCCC4)c1c23,145
6,CC(C)Oc1ccc(C2C3=C(CC(C)(C)CC3=O)Nc3ccccc3N2C(=O)Cc2ccccc2)cc1 (stereo not given),-20.1
7,Cc1cccc(OCC(=O)NCc2ccncc2)c1,2.7
8,NC(=O)Cc1ccc2sc(-c3ccccc3)nc2c1,-6.8
9,Cc1ccc(OCCCCCc2c(C)n[nH]c2C)c(C)c1,-6.7
10,CN(C)CCN1C(=O)C(=O)/C(=C(/O)c2ccccc2)C1c1ccc2c(c1)OCO2 (stereo not given),4.9
11,CC(C)(C)SCCN=C1NS(=O)(=O)c2cc([N+](=O)[O-])ccc21,-7.8
12,O=P(CN1CCCCC1)(c1ccccc1)c1ccccc1,11.6
13,CCCN(CCC)C(=O)Cc1ccc(Cl)cc1,-6.7
14,Cc1c(N(C(=O)c2cc(=O)[nH]c3ccccc23)C(C)C)c(=O)n(-c2ccccc2)n1C,6.9
15,CNc1cc([N+](=O)[O-])ccc1N/C=C\C(=O)c1ccc2c(c1)OCO2,97.2
16,O=C(COc1cccc(Cl)c1)Nc1nccs1,-2.9
17,COc1cc(/C=N\NC(=O)c2c(C)nc3cc(C)ccn23)ccc1O,14.9
18,COc1ccc(OCc2ccc(C(=O)Nc3ccccc3C(=O)O)cc2)cc1,3.2
19,O=[N+]([O-])c1cccc(S(=O)(=O)N2CCc3ccccc3C2)c1,0
20,CCCCOC(=O)Nc1ccc(S(=O)(=O)Nc2ccc(F)cc2)cc1,9.9
21,O=c1[nH]c(SC/C=C/c2ccccc2)nc2sc3c(c12)CCCC3,16.8
22,CC(C)C(C(=O)O)N1C(=O)/C(=C/c2ccc([N+](=O)[O-])cc2)SC1=S (stereo not given),11.8
23,O=C(Nc1ccc(-c2nc3ccccc3[nH]2)cc1)c1ccc(Cl)cc1,-1.5
24,CCOC(=O)c1c(NC(=O)Cc2ccc(Cl)cc2)sc(C(=O)Nc2ccccc2F)c1C,3
25,CC(=O)N1CCN(c2ccc([N+](=O)[O-])c(N)c2)CC1,12.4
26,COc1ccc(/C=C/C(=O)c2c(O)c(OC)c3occc3c2OC)cc1OC,-0.6
27,O=C(CN(Cc1ccccc1)S(=O)(=O)c1ccccc1)N/N=C/c1ccc(Cl)cc1,-2.4
28,CCc1ccc(-c2cc(C(=O)NC(C)(C)C)c3ccccc3n2)cc1,2.5
29,O=C(NCc1cccnc1)c1ccc(S(=O)(=O)N2CCCCC2)cc1,1.1
30,O=C(NCc1ccncc1)C1CCCC1,-7.7
